The full ranking holds about 33,000 sequences; the median of “E-score (-0.5 to 0.5)” is about -0.011, and the highest 2% start at about 0.28. This is one part of the list.
Each sequence was assayed against T1, Gcr1 (UniProt P07261) (assay: PBM E-score (8-mer binding enrichment) (E-score (-0.5 to 0.5)); higher = stronger / more preferred TF binding; most listed sequences are background and not binding sites). Details: protein concentration: 100 nM; construct: GST-full length.
T1 sequence: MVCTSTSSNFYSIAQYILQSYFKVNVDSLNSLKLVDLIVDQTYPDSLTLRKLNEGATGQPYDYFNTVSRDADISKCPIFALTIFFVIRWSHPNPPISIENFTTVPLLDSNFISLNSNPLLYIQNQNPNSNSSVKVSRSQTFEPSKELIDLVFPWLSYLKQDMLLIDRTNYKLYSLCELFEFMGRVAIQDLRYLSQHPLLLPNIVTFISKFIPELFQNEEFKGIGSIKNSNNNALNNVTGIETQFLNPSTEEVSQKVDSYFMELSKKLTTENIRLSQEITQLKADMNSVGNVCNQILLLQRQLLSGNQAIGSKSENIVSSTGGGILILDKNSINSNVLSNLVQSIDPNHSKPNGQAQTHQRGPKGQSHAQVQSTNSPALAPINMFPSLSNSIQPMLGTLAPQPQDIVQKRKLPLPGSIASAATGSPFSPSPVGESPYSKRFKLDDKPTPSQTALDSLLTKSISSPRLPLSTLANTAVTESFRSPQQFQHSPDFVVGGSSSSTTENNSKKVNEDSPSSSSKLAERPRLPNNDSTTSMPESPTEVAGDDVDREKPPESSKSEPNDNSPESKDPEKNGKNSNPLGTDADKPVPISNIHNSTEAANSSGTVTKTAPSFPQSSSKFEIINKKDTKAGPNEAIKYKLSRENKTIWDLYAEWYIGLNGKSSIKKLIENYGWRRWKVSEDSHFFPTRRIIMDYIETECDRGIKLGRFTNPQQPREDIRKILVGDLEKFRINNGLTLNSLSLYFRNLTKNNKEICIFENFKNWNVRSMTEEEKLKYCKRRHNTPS
Summary of the method: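 E-scores (a modified Wilcoxon-Mann-Whitney statistic) were assigned by the Universal PBM Analysis Suite to every ungapped eight-base word pooled with its reverse complement. The input came from universal all-10-mer Agilent arrays made double-stranded by primer extension and probed with GST-tagged yeast transcription factors at about 100-200 nM. Fluorescent anti-GST detected bound protein, and masliner normalised the scans.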

Sequence	PBM E-score
CTCAACTA	0.0318
AATCCCTA	0.0379
ACTATCCT	-0.0391
AGGGCTAG	-0.265
AGCCTGGA	-0.00361
GAACGAAC	-0.107
AAAGTCCA	-0.119
CGGGCTAA	-0.214
ACCCCGAC	-0.0913
ACTTACCA	-0.0264
CCTTGGGA	-0.201
TAATAGAA	0.11
AGTCGAGG	-0.297
ATTCTCAA	0.184
GCAGTTCC	0.0555
AGTACATA	-0.0364
AGTCTAAG	-0.0661
CAGCTTGA	-0.0109
ACCATATC	0.0125
ATATATGG	-0.0169
CGAGGGCG	0.0687
ACACAGAC	-0.24

Sequence	PBM E-score
AGGTTAAA	-0.00988
AATTAGAG	0.0412
CTCACTAC	-0.0719
AAAAAGCT	-0.183
CTAGTTGA	0.0522
CCCTGTAA	0.308
ACTCAGTG	-0.101
CCTCGTCA	-0.0532
ACGATTCA	0.0801
AGGGTAAT	0.108
AATGCATC	-0.213
AACGGGCA	0.117
AGAATATA	-0.295
AAATGCTA	0.0969
TATGCAAA	0.00787
GGCCGACC	-0.138
TCCTCAAA	0.166
CGCTCCCC	-0.0692
CCGTTTCA	0.0614
ACAGGTTG	0.26
ACGCAAGA	-0.102
ATGGAAAG	0.0176

Sequence	PBM E-score
GCAACCGC	0.00581
GTCTCACA	-0.104
AGAGGGGA	-0.138
AACCGGCG	0.177
GATTGGAA	0.258
GATACTAA	0.0118
AAGTCATA	-0.0284
AGCCTCCG	0.0816
TACATAGA	-0.0753
CTCTACGA	-0.144
CAGTGTCA	-0.103
CCACGCTA	-0.136
AGTTTGAC	0.111
ATCAAGAC	0.0131
CCACTTCC	0.305
ACGGATAA	-0.188
CATTTCGG	0.147
CTGCTGCA	0.0766
CGCAGAAC	-0.023
CGCGGAAA	-0.192
CAGCGACA	0.067
GAAACACA	0.217

Sequence	PBM E-score
GACCCATC	-0.0963
CCATCCTC	-0.0032
TCCTCGCA	-0.0249
CAAAGATG	0.016
CGCATCTC	0.0271
AGCACTCG	0.00423
ACCCGTCG	-0.0991
AGGAAAGA	-0.0392
AACTTTGA	0.0812
AGTCCTGG	0.0342
AAGGAATG	0.13
ATCTTCAA	0.0235
AATATGAG	0.134
GACGAATA	0.122
CGTACAGA	-0.358
CACTCGCC	-0.19
GGGCCTGA	-0.266
AGGGCATG	-0.176
ACCGTGAA	-0.0845
AGCCTACA	-0.106
